Assay results: PubChem BioAssay (NCI)
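These data come from cells grown in 96-well plates and exposed to compound for 48 hours at five concentrations. GI50: concentration for 50% inhibition of growth. TGI is the concentration that stops growth completely.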

Test system: NCI-H322M lung
Assay: NCI-60 cell line screen, 48 h

Work on `CC[C@]12C=CCN3CC[C@]4(C(=C(C(=O)OC)C1)Nc1cc(OC)c([C@@H]5[C@H]6O[C@H]6[C@@]6(CC)CC(C(=O)OC)=C7Nc8cc(O)ccc8[C@@]78CCN5[C@@H]68)cc14)[C@@H]32` yielded a GI50 of 11.1 µM and a TGI of over 56.5 µM.
`C/C(=N\Nc1ccc(S(N)(=O)=O)cc1)c1ccc(N=Nc2c(Nc3ccccc3)[nH][nH]c2=O)cc1` showed a GI50 of 3.72 µM and a TGI of 15.2 µM.
